# Reference: PubChem BioAssay AID1466 (National Center for Advancing Translational Sciences (NCATS), 2008)
# Out of some 200,000 compounds screened, about 10 (0.005%) were called active. The shares of active, inactive and inconclusive entries below differ from those in the screen. Calls follow the shape of the dose curve; as a rule, active = well fitted inhibition curve with a large enough effect; inconclusive = small, poorly fitted or top-dose-only effect, or effect the other way, or another doubt; inactive = no such curve, though single readings can be large or run the other way. Potencies of inconclusive entries are left out as doubtful fits.
# Target: Lysosomal alpha-glucosidase (Homo sapiens) (UniProt P10253)
# Test: qHTS Assay for Inhibitors of Human alpha-Glucosidase as a Potential Chaperone Treatment of Pompe Disease;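 as to activity change, negative = inhibition: plate controls were uninhibited enzyme wells for no effect and no-enzyme background for full effect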
# Conditions: purified human GAA, 4-MU-alpha-glucoside fluorescence; activity change, negative = inhibition: at 76.9 µM (top of the series) unless noted
# How it was run: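 Enzyme (4 nM final) mixed with compound (up to 77 uM), then 4-MU-alpha-D-pyranoside (400 uM final) added; 20 min at room temperature, pH 5.0. Reaction stopped at pH 10, fluorescence read, AC50 derived by Hill fit.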
# Potency is read from the fitted curve at half-maximal effect; tags tell the direction and shape of the fitted curve.
Structure (SMILES),Potency,"activity change, negative = inhibition"
COc1ccccc1/C=N/NC(=O)c1ccc(N(C)S(=O)(=O)c2ccccc2)cc1,"inconclusive [inhibitor, full curve]",–
COc1ccc(/C=C/C(=O)NC(C)CCc2ccccc2)cc1 (stereo not drawn),"inconclusive [inhibitor, single point]",–
Cc1cc(C(=O)N/N=C\C(Br)=C\c2ccccc2)c(C)o1,–,inactive: -12.8%
CCCCCCc1cc2cc(S(=O)(=O)c3ccc(Cl)cc3)c(=O)oc2cc1O,"inconclusive [activator, single point]",–
O=c1c2ccccc2nnn1Cc1ccc2ccccc2c1,"inconclusive [inhibitor, single point]",–
NC(=O)c1cc(-c2ccccc2)nc(N2CCCCCC2)n1,"inconclusive [activator, single point]",–
Cc1c(NC(=O)C(C)OC(=O)c2ccc(Cl)nc2)c(=O)n(-c2ccccc2)n1C (stereo not drawn),"inconclusive [inhibitor, partial curve]",–
O=C(Nc1nc2ccccc2n1Cc1ccc(Cl)cc1)c1ccco1,–,inconclusive: 15.7% [activator]
NC(=O)c1cccc(S(=O)(=O)N2CCCCC2)c1,"inconclusive [inhibitor, single point]",–
O=C(c1ccccc1)N1CCN(c2ccccc2F)CC1,–,inconclusive: -15.1% [inhibitor]
O=c1[nH]c(N/N=C/c2ccccc2)nc2ccccc12,"inconclusive [activator, partial curve, poor fit]",–
Cc1cc(C)n2nc(SCC(=O)Nc3ccccc3)nc2n1,"inconclusive [activator, single point]",–
CC(C)Cn1c(SCC(=O)c2ccc(Cl)s2)nnc1-c1ccco1,"inconclusive [inhibitor, partial curve]",–
COc1ccc(/C=N/NC(=O)c2cc(C(C)(C)C)[nH]n2)cc1COc1ccc(F)cc1F,"inconclusive [inhibitor, partial curve, poor fit]",–
NC(=O)COC(=O)c1cccc(NS(=O)(=O)/C=C/c2ccccc2)c1,–,inconclusive: 12% [activator]
CSc1ccc(S(=O)(=O)NCCSC(C)(C)C)cc1,"inconclusive [inhibitor, single point]",–
O=C(NC1CC2CCCC(C1)N2Cc1ccccc1)C1CCCCC1 (stereo not drawn),–,inconclusive: 19.7% [activator]
Cn1c(=O)cc(OCCCC(=O)N2CCCCC2)c2ccccc21,–,inconclusive: -18.2% [inhibitor]
Cc1oc2nc(SCCCC(=O)NCCCO)nc(N)c2c1C,"inconclusive [inhibitor, single point]",–
CC1CN(c2oc(-c3cccs3)nc2C#N)CC(C)O1 (stereo not drawn),"inconclusive [activator, partial curve]",–
CC(=O)C1C(c2ccc(Cl)cc2)c2c(n[nH]c2C)CC1(C)O (stereo not drawn),"inconclusive [inhibitor, single point]",–
Cc1onc(-c2c(F)cccc2Cl)c1C(=O)N1CCc2ccccc2C1,"inconclusive [inhibitor, full curve, poor fit]",–

Structure (SMILES),Potency,"activity change, negative = inhibition"
N#Cc1ccsc1NC(=O)CN1CCN(S(=O)(=O)c2ccc3ccccc3c2)CC1,"inconclusive [inhibitor, partial curve]",–
CCOC(=O)CSc1ncc(OC)c(Sc2ccc(OC)cc2)n1,"inconclusive [inhibitor, partial curve, poor fit]",–
Cc1cc(C)c(OCC(=O)Nc2cccc(NC(=O)c3ccco3)c2)c(Br)c1,"inconclusive [inhibitor, single point]",–
COC(/C=C/Nc1ccc(Br)cc1)=C(C#N)C#N,"inconclusive [inhibitor, single point]",–
Cc1ccnc(N2C3CCC2CC(O)(c2ccccc2)C3)n1 (stereo not drawn),–,inconclusive: 16.1% [activator]
COC(=O)c1ccccc1NC(=O)C1CCCN(S(=O)(=O)c2ccc(OC)cc2)C1 (stereo not drawn),"inconclusive [inhibitor, partial curve, poor fit]",–
CN(C)c1cc(O)c(C(=S)Nc2ccccc2)c(N(C)C)c1,"inconclusive [inhibitor, single point]",–
CCNS(=O)(=O)c1ccc(CCC(=O)NCc2ccc(C)cc2)cc1,–,inconclusive: 14.3% [activator]
CS(=O)(=O)Nc1ccc(C2=NN(C(=O)c3ccco3)C(c3ccccc3F)C2)cc1 (stereo not drawn),"inconclusive [inhibitor, single point]",–
CCOc1ccc(Nc2nc(Cc3nnc(SCC(=O)NC4CCCCC4)n3C)cs2)cc1,–,inactive: 0.365%
CCOc1cc(NC(=S)NCC2CCCO2)c(OCC)cc1NC(=O)c1ccc(F)cc1 (stereo not drawn),–,inconclusive: 10.2% [activator]
CCOc1ccc(N(CCCCO)C(=S)NC(=O)c2ccc(C)c(Br)c2)cc1,"inconclusive [activator, full curve, poor fit]",–
CCOc1ccc(N(CC(=O)Nc2ccc(OC)cc2)S(=O)(=O)c2c(C)[nH]c(=O)[nH]c2=O)cc1,–,inactive: -2.22%
Cn1c(/C=C/c2ccccc2)nc2ccccc21,–,inactive: 7.33%
O=[N+]([O-])c1ccc(F)cc1OCc1nc(-c2cccs2)no1,"inconclusive [inhibitor, single point]",–
CN(C)c1nc(N)nc(/C(C#N)=C/C2CC3C=CC2C3)n1 (stereo not drawn),–,inactive: -4.65%
CCOC(=O)/C(=N\Nc1ccc(OC)cc1)c1csc(Nc2ccccc2)n1,–,inactive: -2.87%
COc1cc(C=O)ccc1OCC(=O)N1CCCC1,–,inconclusive: 3.49% [activator]
CCOC(=O)c1ccc(NC(=O)C2CCN(S(=O)(=O)CC)CC2)cc1,"inconclusive [inhibitor, partial curve]",–
CNC(=S)N/N=C/c1ccc(OCC(=O)Nc2c(C)cc(C)cc2C)c(OC)c1,"inconclusive [inhibitor, partial curve]",–
COCCn1c(=O)[nH]c2cc(C(=O)NCCCN3CCN(c4ccc(F)cc4)CC3)ccc2c1=O,"inconclusive [activator, partial curve]",–
